# From the supplement of paper PMC7238544
# Structures can show the parent of a compound that is named as a salt. ± gives the standard deviation of the averaged measurements. The list shows a part of the results.
# Columns and labels:
# Details in all cases: priming compound concentration 100 µM
# hAMSC donor 1 [1] = experiment: Hoechst total cell count ratio vs vehicle control; higher = more cells (less toxicity)
# hAMSC donor 2 [2] = experiment: as above
# hAMSC donor 1 [3] = experiment: transgenic luciferase activity (RLU/mg protein) fold change vs vehicle control (ratio); higher = more transgene expression
# hAMSC donor 2 [4] = experiment: as above
# hAMSC donor 1 [5] = experiment: transfection efficiency (EGFP+ cells / Hoechst count) fold change vs vehicle control (ratio); hAMSC are human adipose-derived mesenchymal stem cells given an EGFP-luciferase plasmid by lipofection; higher = enhanced transfection
# hAMSC donor 2 [6] = experiment: as above
# 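Throughout, for Hoechst total cell count ratio vs vehicle control: compound added 30 min before Lipofectamine 3000 lipoplex delivery, triplicate-well means expressed against DMSO vehicle control wells of the same 96-well plate.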
# 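Throughout, for transfection efficiency (EGFP+ cells / Hoechst count) fold change vs vehicle control: compounds added 30 min before Lipofectamine 3000 lipoplex transfection, triplicate means relative to DMSO vehicle wells on the same plate, luciferase RLU normalized to BCA total protein.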
# 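Throughout, for transgenic luciferase activity (RLU/mg protein) fold change vs vehicle control: compounds in DMSO added 30 min before Lipofectamine 3000 transfection of pEGFP-Luc in 96-well plates, values are means of triplicate wells over DMSO vehicle wells on the same plate.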
Structure (SMILES),Hoechst total cell count ratio (hAMSC donor 1 [1]),Hoechst total cell count ratio (hAMSC donor 2 [2]),transgenic luciferase activity (hAMSC donor 1 [3]),transgenic luciferase activity (hAMSC donor 2 [4]),transfection efficiency (hAMSC donor 1 [5]),transfection efficiency (hAMSC donor 2 [6])
CCC(=O)O[C@]1(C(=O)CCl)[C@@H](C)C[C@H]2[C@@H]3CCC4=CC(=O)C=C[C@]4(C)[C@@]3(F)[C@@H](O)C[C@@]21C [Clobetasol propionate],1.19 ± 0.21,1.15 ± 0.098,4.2 ± 2,0.783 ± 0.14,0.966 ± 0.2,1.17 ± 0.15
COC(=O)C1=C(C)NC(C)=C(C(=O)OC(C)C)C1c1cccc2nonc12 (configuration not stated) [Isradipine],1.46 ± 0.18,1.02 ± 0.08,1.91 ± 0.66,2.15 ± 0.61,1.2 ± 0.098,1.56 ± 0.2
COc1ccc(OC)c(C(O)CNC(=O)CN)c1 (configuration not stated) [Midodrine hydrochloride],1.14 ± 0.17,1.46 ± 0.038,0.818 ± 0.19,0.889 ± 0.018,0.89 ± 0.066,0.961 ± 0.13
CC[N+](C)(C)c1cccc(O)c1 [Edrophonium chloride],1.27 ± 0.063,0.679 ± 0.076,1.56 ± 0.57,0.667 ± 0.25,0.858 ± 0.27,1.1 ± 0.2
CC(=O)CCCCn1c(=O)c2c(ncn2C)n(C)c1=O [Pentoxifylline],1.07 ± 0.16,0.963 ± 0.099,0.682 ± 0.35,0.896 ± 0.52,1.26 ± 0.16,1.11 ± 0.31
CC(=O)NCCCCCCNC(C)=O [Hexamethylenebisacetamide],1.45 ± 0.15,1.09 ± 0.14,0.79 ± 0.21,1.09 ± 0.18,1 ± 0.042,1.3 ± 0.28
"N[C@@H](Cc1cc(I)c(Oc2ccc(O)c(I)c2)c(I)c1)C(=O)O [3,5,3'-Triiodothyronine]",0.82 ± 0.11,1.2 ± 0.21,1.96 ± 0.24,2.39 ± 0.7,1.9 ± 0.22,1.66 ± 0.33
CCN(CC)CC#CCOC(=O)C(O)(c1ccccc1)C1CCCCC1 (configuration not stated) [Oxybutynin hydrochloride],1.39 ± 0.19,2.09 ± 0.22,0.822 ± 0.18,0.63 ± 0.043,0.646 ± 0.3,0.374 ± 0.021
CCC(=O)O[C@]1(C(=O)SCF)[C@H](C)C[C@H]2[C@@H]3C[C@H](F)C4=CC(=O)C=C[C@]4(C)[C@@]3(F)[C@@H](O)C[C@@]21C [Fluticasone propionate],1.27 ± 0.035,0.924 ± 0.023,2.54 ± 1.4,1.94 ± 0.026,,
O=C(NCCN1CCOCC1)c1ccc(Cl)cc1 [Moclobemide],1.29 ± 0.12,1.13 ± 0.15,0.512 ± 0.34,0.855 ± 0.059,1.12 ± 0.57,1.03 ± 0.17
Clc1ccc2nsnc2c1NC1=NCCN1 [Tizanidine hydrochloride],1.05 ± 0.052,1.59 ± 0.88,0.933 ± 0.18,0.659 ± 0.32,1.07 ± 0.42,1.18 ± 0.59
Oc1ccc(/C=C/c2cc(O)cc(O)c2)cc1 [Resveratrol],1.56 ± 0.3,1.48 ± 0.15,10.3 ± 1.8,1.02 ± 0.21,1.7 ± 0.26,1.75 ± 0.29
OC(c1cc(C(F)(F)F)nc2c(C(F)(F)F)cccc12)C1CCCCN1 (configuration not stated) [Mefloquine hydrochloride],0.126 ± 0.022,0.0487 ± 0.006,0.00571 ± 0.0014,0.000141 ± 4.3e-05,0.157 ± 0.026,0.123 ± 0.21
Cc1nc2ccccn2c(=O)c1CCN1CCC(C(=O)c2ccc(F)cc2)CC1 [Pirenperone],1.44 ± 0.17,1.16 ± 0.14,0.353 ± 0.15,0.551 ± 0.26,0.912 ± 0.033,0.872 ± 0.14
NC[C@H]1CC[C@H](C(=O)Oc2ccc(CCC(=O)O)cc2)CC1 [Cetraxate hydrochloride],1.12 ± 0.085,1.2 ± 0.025,0.506 ± 0.12,0.824 ± 0.22,0.92 ± 0.2,1.07 ± 0.11
C[C@](N)(Cc1ccc(O)c(O)c1)C(=O)O [Methyldopa],1.34 ± 0.14,0.973 ± 0.059,2 ± 1.6,1.27 ± 0.46,1.42 ± 0.33,1.08 ± 0.24
C[C@]12C[C@H](O)[C@H]3[C@@H](CCC4=CC(=O)CC[C@@]43C)[C@@H]1CC[C@@H]2C(=O)CO [Corticosterone],1.36 ± 0.021,0.883 ± 0.12,2.78 ± 0.19,1.13 ± 0.55,1.25 ± 0.26,1.53 ± 0.13
CC(=O)[C@H]1CC[C@H]2[C@@H]3CCC4=CC(=O)CC[C@]4(C)[C@H]3CC[C@]12C [Progesterone],1.11 ± 0.11,1.07 ± 0.12,0.292 ± 0.037,0.424 ± 0.17,0.78 ± 0.12,0.937 ± 0.19
Cc1cccc(C)c1NC(=O)C(C)N (configuration not stated) [Tocainide],1.38 ± 0.14,0.862 ± 0.43,1 ± 0.2,0.718 ± 0.09,0.994 ± 0.16,1.33 ± 0.33
CC(C)NCC(O)COc1ccc(COCCOC(C)C)cc1 (configuration not stated) [Bisoprolol fumarate],1.22 ± 0.12,1.01 ± 0.13,0.437 ± 0.094,0.743 ± 0.15,1.15 ± 0.22,0.783 ± 0.16
NS(=O)(=O)c1cc2c(cc1Cl)NCNS2(=O)=O [Hydrochlorothiazide],1.2 ± 0.22,1.42 ± 0.35,0.498 ± 0.38,1.21 ± 0.18,0.836 ± 0.41,0.957 ± 0.068
CN(C)CCOC(c1ccccc1)c1ccccc1 [Diphenhydramine hydrochloride],1.09 ± 0.042,1.43 ± 0.2,1.78 ± 0.47,0.734 ± 0.12,0.79 ± 0.33,0.724 ± 0.078
CCOC(=O)c1ccc(OC(=O)CCCCCNC(=N)N)cc1 [Gabexate mesilate],1.79 ± 0.2,1.06 ± 0.12,0.272 ± 0.085,0.617 ± 0.12,0.947 ± 0.17,0.555 ± 0.14
C#C[C@]1(O)CC[C@H]2[C@@H]3CCC4=CC(=O)CC[C@@H]4[C@H]3CC[C@@]21C [19-Norethindrone],1.14 ± 0.073,1.01 ± 0.43,0.207 ± 0.18,0.694 ± 0.1,1.19 ± 0.18,1.6 ± 0.097
